In article PMC10582461, “Self‐Aggregating Tau Fragments Recapitulate Pathologic Phenotypes and Neurotoxicity of Alzheimer's Disease in Mice” (Advanced Science, 2023):

Columns and labels:
[1] = target: the molecule itself; assay: in vitro self-aggregation, non-reducing SDS-PAGE and immunoblot; tau-AC species alone (40-100 µM) in self-assembly buffer (10 mM HEPES pH 7.4, 100 mM NaCl, 1 mM DTT), 37 °C, shaking 250 rpm, no inducers; non-reducing SDS-PAGE, IB and CBB
[2] = target: T1, full‐length 2N4R human tau (tau‐FL) (human, UniProt P10636-8 1-441); assay: co-sedimentation; tau-FL (20 µM) incubated with tau-AC or phospho-tau-AC (20 µM) at 37 °C, then 120 000 x g for 1 h at 4 °C; supernatant and pellet by SDS-PAGE/IB (anti-FLAG, TAU-5); conditions: both partners purified
T1 construct: microtubule-associated protein tau, human, longest isoform 2N4R, 441 residues; Cloned in pET28a; also called full-length tau; source: E. coli Rosetta 2 (DE3), pET28a, purified (heated 85 °C, HiTrap Mono S)

[3] = target: the molecule itself; assay: negative-stain transmission electron microscopy; purified tau proteins incubated at 37 °C (with or without heparin), uranyl acetate staining

B1: tau‐AC‐S324D (phospho‐mimetic mutant of tau‐AC) (domain or fragment)
chain: not shown
notes: human tau […] of 2N4R (441 residues) with S324D; numbers count on: 2N4R tau (441 residues); also called phospho-tau-AC; source: E. coli Rosetta 2 (DE3), pET28a, purified; not shown: FLAG, C-terminal, kept
binding result [1]: binds
binding result [2]: binds

B2: tau‐AC‐S356D (phospho‐mimetic mutant of tau‐AC) (domain or fragment)
chain: not shown
notes: human tau […] of 2N4R (441 residues) with S356D; numbers count on: 2N4R tau (441 residues); also called phospho-tau-AC; source: E. coli Rosetta 2 (DE3), pET28a, purified; not shown: FLAG, C-terminal, kept
binding result [2]: binds
binding result [3]: binds

B3: tau‐AC‐S324D/S356D (tau‐AC‐SDSD, phospho‐mimetic double mutant of tau‐AC) (domain or fragment)
chain: not shown
notes: human tau […] of 2N4R (441 residues) with S324D and S356D; numbers count on: 2N4R tau (441 residues); also called phospho-tau-AC; source: E. coli Rosetta 2 (DE3), pET28a, purified; not shown: FLAG, C-terminal, kept
binding result [3]: binds
